The test system of this test is Gram-positive and Gram-negative bacteria tested. Particulars: activity listed as entry 5>8>7.
Take `CCCCCCCC[N+](C)(C)CCOCCOCCOCCOC.[Cl-]` [Entry 8]: the antimicrobial effectiveness entry is “effective”.
For the compound `CCCCCCCC[N+](C)(C)CCOC.[Cl-]` [Entry 5], the antimicrobial effectiveness entry was “effective”.
Next, `CCCCCCCC[N+](C)(C)CCOCCOCCOC.[Cl-]` [Entry 7]: “effective”.
